Experimental data reported in patent US20260137707A1, “METHODS OF MODULATING ATXN2 EXPRESSION” (University of Utah Research Foundation, priority 2022, published 2026).

Tested on: H2 cells and S1 cells
[1] = average MTT of H2 and S1 cells, 1 μm
[2] = average MTT of H2 and S1 cells, 10 μm

Compound | MTT at 1 μm [1] | MTT at 10 μm [2] | MTT at 1 μm (1 µM) | MTT at 10 μm (10 µM) | MTT at 1 μm (average MTT of H2 and S1 cells, 1 μm, listed as Lanatoside C) | MTT at 10 μm (average MTT of H2 and S1 cells, 10 μm, listed as Lanatoside C)
CCCCCCCCCOc1ccc2[nH]cc(CCN)c2c1 [5-Nonyloxytryptamine] | 114.1 | 23.68 | – | – | – | –
CC[C@H]1CN2CCc3cc(OC)c(OC)cc3[C@@H]2C[C@@H]1C[C@H]1NCCc2cc(OC)c(OC)cc21 [Emetine dihydrochloride] | 59.72 | 58.08 | – | – | – | –
C[C@]12CC[C@H](O)C[C@H]1CC[C@@H]1[C@@H]2CC[C@]2(C)[C@@H](C3=CC(=O)OC3)CC[C@]12O [Digitoxigenin] | 81.65 | 74.85 | – | – | – | –
C[C@@H]1O[C@@H](O[C@@H]2C=C3CC[C@@H]4[C@H](CC[C@]5(C)[C@@H](c6ccc(=O)oc6)CC[C@]45O)[C@@]3(C)CC2)[C@H](O)[C@H](O)[C@H]1O [Proscillaridin A] | 47.75 | 44.97 | – | – | – | –
COc1cccc(C2(O)CCCCC2CN(C)C)c1 (stereo not shown) [Tramadol] | 128.2 | 112.8 | – | – | – | –
C[C@@H]1O[C@@H](O[C@H]2C[C@@H](O)[C@]3(CO)[C@H]4[C@H](O)C[C@]5(C)[C@@H](C6=CC(=O)OC6)CC[C@]5(O)[C@@H]4CC[C@]3(O)C2)[C@H](O)[C@H](O)[C@H]1O [OUABAIN] | 51.75 | 60.4 | – | – | – | –
CC[C@H]1CN2CCc3cc(OC)c(OC)cc3[C@@H]2C[C@@H]1C[C@H]1NCCc2cc(O)c(OC)cc21.Cl.Cl.O.O.O.O.O.O.O [Cephaeline dihydrochloride heptahydrate] | 59.14 | 62.1 | – | – | – | –
C[C@]12CC[C@H]3[C@@H](CC[C@]4(O)C[C@@H](O)CC[C@]34C=O)[C@@]1(O)CC[C@@H]2C1=CC(=O)OC1 [STROPHANTHIDIN] | – | – | 40.11 | 45.52 | – | –
STROPH[…] LACTONE ACETATE | 43.59 | 36.63 | – | – | – | –
CNC1CC(c2ccc(Cl)c(Cl)c2)c2ccccc21 (stereo not shown) [Indatraline] | 116.5 | 13.49 | – | – | – | –
C[C@]12CC[C@H](O)C[C@H]1CC[C@@H]1[C@@H]2[C@H](O)C[C@]2(C)[C@@H](C3=CC(=O)OC3)CC[C@]12O [SARMENTOGENIN] | 45.81 | 41.24 | – | – | – | –
CO[C@H]1[C@@H](O)[C@@H](C)O[C@@H](O[C@H]2CC[C@]3(C)[C@H]4CC[C@]5(C)[C@@H](C6=CC(=O)OC6)CC[C@]5(O)[C@@H]4CC[C@]3(O)C2)[C@@H]1O [EMICYMARIN] | 111.9 | 53.42 | – | – | – | –
CO[C@H]1C[C@H](O[C@H]2CC[C@]3(C)[C@H]4CC[C@]5(C)[C@@H](C6=CC(=O)OC6)CC[C@]5(O)[C@@H]4CC[C@]3(O)C2)O[C@H](C)[C@H]1O [PERIPLOCYMARIN] | 58.7 | 37.1 | – | – | – | –
CC(=O)O[C@H]1C[C@H](O[C@H]2[C@@H](O)C[C@H](O[C@H]3[C@@H](O)C[C@H](O[C@H]4CC[C@@]5(C)[C@H](CC[C@@H]6[C@@H]5C[C@@H](O)[C@]5(C)[C@@H](C7=CC(=O)OC7)CC[C@]65O)C4)O[C@@H]3C)O[C@@H]2C)O[C@H](C)[C@H]1O[C@@H]1O[C@H](CO)[C@@H](O)[C@H](O)[C@H]1O [LANATOSIDE C] | 38.04 | 35.97 | – | – | 35.01 | 35.63
C[C@H]1O[C@@H](O[C@H]2CC[C@]3(C=O)[C@H]4CC[C@]5(C)[C@@H](C6=CC(=O)OC6)CC[C@]5(O)[C@@H]4CC[C@]3(O)C2)C[C@H](O)[C@@H]1O [Helveticoside] | 98.96 | 37.06 | – | – | – | –
C[C@]12CC[C@H](O)C[C@H]1CC[C@@H]1[C@@H]2C[C@@H](O)[C@]2(C)[C@@H](C3=CC(=O)OC3)CC[C@]12O [Digoxigenin] | 60.4 | 31.57 | – | – | – | –

Where a name gives a salt, the structure may show the parent alone. Read-outs that look alike come from different tables or passages of the source.
